# The supplement of paper PMC10338343
# ± gives the standard deviation. The entries are a selection whose mix differs from that of the whole data set.
# Test system: MIWI (PIWIL1) piRISC loaded with L1MC piRNA (30 nt)
# Assay: pre-steady-state target cleavage rate (min^-1); MIWI and MILI are mouse PIWI proteins and EfPiwi is from a freshwater sponge; tags in brackets are library labels; higher = faster piRNA-guided slicing of the target
# Conditions: guide: L1MC piRNA 5'p-UAACUAAAUACUAUGCAAGCUGUAGGUCCU; auxiliary factor: 500 nM mouse GTSF1
# Summary of the method: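 For Cleave-'n-Seq, a transcribed, DNA-blocked target RNA library […] met 1 nM active affinity-purified piRISC with one synthetic guide at 33 °C for 0–8 or 0–960 min in HEPES–potassium acetate buffer, with or without 500 nM GTSF1 partner protein. Uncleaved targets were sequenced and normalised to depth and weakly complementary targets, with three trials pooled and k3 capped at 0.0001 min^-1. A burst-and-steady-state fit supplied the pre-steady-state cleavage rate.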
# 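Note: 1 nM active piRISC with 0.1 nM target library at 33 °C single turnover.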
row,Sequence,pre-steady-state target cleavage rate
1,UCCUGCUACAGCUUGCAUAGAUUUUAGUAA,0.0557 ± 0.0078
2,UCCUGCUACAGCUACCAUAGUAUUUAGUAA,0.189 ± 0.034
3,UCCUGGAACAGCUUGCUUAGUAUUUACAAA,0.286 ± 0.063
4,UCCUGGAUGUCGAUUCAUAGUAUUUAGUUA,0.0103 ± 0.0043
5,UCCUGGAACAGCUUGCAUAGUAUAAACAAA,0.18 ± 0.043
6,UCCACCUACACCUUGCAUAGUAUUUUCAAA,0.285 ± 0.042
7,UCCUGGUACAGCAUGCAUAGUAUUUACAAA,0.291 ± 0.057
8,UCCACCUACAGCUUCCAUAGUAUUAAGUUA,0.0358 ± 0.015
9,UCCUGGAUGUCGUUGCAUAGUAUUUAAUUA,0.012 ± 0.0043
10,UGGACCUACAGCUUCCAUAGUAUAUAGUUA,0.00443 ± 0.0027
11,UCCUCCUACAGCAAGCAUAGUAUUUACAAA,0.335 ± 0.059
12,UCCUGGAUCAGCAUGCAUAGUAUUUUCAAA,0.105 ± 0.025
13,UGGACCUACAGCUUGCAUAGUAAAAAGUAA,0.142 ± 0.028
14,UCGACCUACAGCUUCGAUAGUAUUUUCAAA,0.01 ± 0.0053
15,UGGACCUACAGCUUGCUAAGUAUUUACAAA,0.00712 ± 0.0031
16,UCCUGGAUGAGCUUGCAUAGUAUAAUGUAA,0.0364 ± 0.014
17,AGGACCUACAGCUUGCAUAGAUAUUAGUAA,0.123 ± 0.042
18,UCCUGCAUCAGCUUGCAUAGUAUUUUCAAA,0.328 ± 0.06
19,UCCUGGAUGUCGAAGCAUAGUAUUUAGUUG [g2:g16:cont:t1G],0.00362 ± 0.0031
20,UCCUCCUACAGGUUGCAUAGUAUUUACAAA,0.201 ± 0.034

row,Sequence,pre-steady-state target cleavage rate
1,UGGACCUACACGUUGCAUAGUAUUUAGAAA,0.193 ± 0.018
2,UCCUGGAUGAGCUUGGUUAGUAUUUAGUAA,0.0792 ± 0.013
3,UCCUGCUACAGCAUGCAUAGUAUUUACAAA,0.201 ± 0.042
4,UCCUGGAUCAGCUUCGAUAGUAUUUAGUUA,0.0375 ± 0.008
5,UCGACCUACAGCUUGCAUAGUAUUUGUUA,0.505 ± 0.042
6,AGGACCUACAGCUUGCAUAGAUAUUUCAAA,0.35 ± 0.12
7,UCCUCCUACAGCUUGCUAAGUAUUUAGAAA,0.0576 ± 0.017
8,UCGACCUACAGCUUGGAUAGUAUUUUCAAA,0.0746 ± 0.021
9,UCCUGCUACAGCUUGGUUAGUAUUUUCAAA,0.00524 ± 0.0039
10,UCCUGCUACAGCUACCAUAGUAUUUUCAAA,0.0102 ± 0.0049
11,UGCUGCUACAGCUUGCAUAGUAUUUUCAAA,0.353 ± 0.062
12,UCCACCUACAGCUUGCAUAGUAAUUAGAAA,0.259 ± 0.046
13,UCCUGGUACAGCUUGCAUUGUAUUUAGAAA,0.0478 ± 0.013
14,UCCUCCUACACGUUGCAUAGUAUUUUCAAA,0.188 ± 0.031
15,UCCUGGAUGAGCUUCCAUUGUAUUUAGUUA,0.00797 ± 0.0053
16,UCCUGCUACAGCUUGCAAAGUAUUUUCAAA,0.278 ± 0.053
17,AGGACCUACAGCUUGCAUAGAAUUUUCAAA,0.395 ± 0.08
18,UCCUGGAUCAGCUUGCUUAGUAUUUUCAAA,0.024 ± 0.0088
19,UCCACCUAGAGCUUGCAUAGUAUUUUCAAA,0.228 ± 0.04
